Results as given in the BET-seq Pho4 binding data (Le et al. 2018).
The other results are listed elsewhere or left out. Values were computed here from the reads of four pooled replicates and scatter widely.

Target: T1, Pho4 (S. cerevisiae) (UniProt P07270)
T1 sequence: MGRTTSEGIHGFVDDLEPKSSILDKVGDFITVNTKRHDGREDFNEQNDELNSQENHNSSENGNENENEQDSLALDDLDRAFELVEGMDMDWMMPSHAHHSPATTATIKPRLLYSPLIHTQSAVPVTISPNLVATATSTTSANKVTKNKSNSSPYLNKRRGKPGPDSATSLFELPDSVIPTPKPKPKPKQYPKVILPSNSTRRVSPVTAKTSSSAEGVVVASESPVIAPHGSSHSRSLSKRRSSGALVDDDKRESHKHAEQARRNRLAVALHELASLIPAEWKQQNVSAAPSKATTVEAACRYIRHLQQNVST
Assay: relative binding free energy (BET-seq); higher = weaker binding
Conditions: reference: library average

| Sequence | relative binding free energy [kcal/mol] |
| --- | --- |
| GCATGCACGTGTATGT | 0.01 |
| TTATTCACGTGTGCGA | 0.18 |
| GTGGGCACGTGGATCG | -0.01 |
| ACCGTCACGTGAGGTG | 0.24 |
| TTTAGCACGTGAGAAA | 0.22 |
| GGGTGCACGTGGTAAG | 0.04 |
| AAAGACACGTGGAGGT | -0.06 |
| GATGTCACGTGTGGCC | 0.19 |
| AATGGCACGTGGAGAG | -0.11 |
| ATGCTCACGTGTAATG | 0.26 |
| ATATTCACGTGGTACG | 0.19 |
| GGGAACACGTGTTAGA | 0.11 |
| TGGGACACGTGGGTAC | -0.11 |
| GTTATCACGTGGGGTC | 0.08 |
| AAGGTCACGTGTGAAG | 0.16 |
| TACGGCACGTGGTAGG | -0.09 |
| GTTGGCACGTGATGCT | -0.04 |
| TGCTGCACGTGCGTGG | -0.23 |
| ATGGCCACGTGGGGTG | -0.17 |
| ATAGACACGTGAGGGG | 0.23 |
| TTAGACACGTGATTGT | 0.29 |
| TGGCACACGTGCTTTG | 0.17 |
| TAGTTCACGTGAAGAT | 0.3 |

| Sequence | relative binding free energy [kcal/mol] |
| --- | --- |
| ATAAACACGTGAGGGT | 0.15 |
| TTATACACGTGTGCGT | -0.12 |
| ATGATCACGTGGGCTG | 0.01 |
| TATCGCACGTGTGGAA | -0.05 |
| ATGGTCACGTGGAAAG | 0.27 |
| AACGGCACGTGTGGTT | -0.09 |
| GTCTGCACGTGCGGTA | 0.08 |
| TCTTACACGTGATTTT | 0.26 |
| ACTAGCACGTGGTTTT | -0.07 |
| GGTCTCACGTGGGCCG | 0.19 |
| TGGTCCACGTGGCGGT | -0.04 |
| TAATTCACGTGGGATC | 0.17 |
| TGGGGCACGTGTGGTT | -0.01 |
| CGAGCCACGTGGGTTG | -0.19 |
| AGATTCACGTGAGTTT | 0.41 |
| CTTTTCACGTGTTAGG | 0.25 |
| TAGTGCACGTGGCGGG | 0.01 |
| TTTAGCACGTGGCGTC | -0.18 |
| TGGAACACGTGTGCTT | 0.04 |
| CGCAACACGTGTGGGT | 0.16 |
| TGTTGCACGTGGAAAG | 0.18 |
| ATTGTCACGTGGCTAC | 0.1 |
| GTGAGCACGTGGAGGA | 0.03 |

| Sequence | relative binding free energy [kcal/mol] |
| --- | --- |
| GTGTACACGTGCAGGA | 0.11 |
| TGGATCACGTGGTAAT | 0.08 |
| AAAGGCACGTGTATGT | -0.11 |
| AAAGTCACGTGAGGTT | 0.32 |
| GCTTGCACGTGGGCTG | -0.21 |
| TGGGACACGTGTAAAT | 0.22 |
| GATGGCACGTGGAGTG | 0.06 |
| ATTTTCACGTGTAGGG | 0.27 |
| CCAGGCACGTGGGGGT | -0.22 |
| AGCGTCACGTGGGTCT | 0.07 |
| TAGTTCACGTGTTGTG | 0.3 |
| AGTAGCACGTGTAGGA | -0.03 |
| GTATTCACGTGTGTAC | 0.16 |
| GGGGTCACGTGTATGG | 0.17 |
| TCGTTCACGTGTGAAG | 0.37 |
| TGTCACACGTGGGAGA | 0.02 |
| CTGAGCACGTGTTGGA | -0.06 |
| CTCGTCACGTGATTGT | 0.22 |
| ATTGTCACGTGACGGA | 0.1 |
| GTGCTCACGTGTGATG | 0.33 |
| GTTAGCACGTGAGTAA | 0.13 |
| TAAGGCACGTGATTTG | 0.06 |
| AGTGTCACGTGATTGG | 0.24 |

| Sequence | relative binding free energy [kcal/mol] |
| --- | --- |
| AATGTCACGTGTTGTC | 0.02 |
| CAGGGCACGTGGAGCG | -0.09 |
| GTAGGCACGTGGTATG | -0.27 |
| AATAGCACGTGTTTTT | -0.02 |
| AGAGCCACGTGGGGTT | -0.2 |
| GGGCACACGTGAGTTG | 0.28 |
| TGGCGCACGTGAAGTT | 0.22 |
| GGTGGCACGTGCAGGT | -0.08 |
| TATGTCACGTGGCAAA | 0.1 |
| GCAGCCACGTGTGGGG | 0.04 |
| TGTGGCACGTGTTAGT | -0.02 |
| CGAGTCACGTGTTGGG | 0.24 |
| CGATTCACGTGTAAGG | 0.22 |
| GAGAGCACGTGGATGG | 0 |
| TTTGCCACGTGGGTAG | -0.2 |
| TGGTACACGTGGCCGT | -0.05 |
| GAGGTCACGTGCATTG | 0.18 |
| TGTTACACGTGCGGTT | 0.1 |
| AAGGACACGTGTGGGC | 0.05 |
| TGATGCACGTGTTATG | 0.07 |
| CTGTGCACGTGCAGGT | -0.12 |
| GAAGCCACGTGTTGTT | -0.03 |
| CACGGCACGTGGTATG | -0.11 |

| Sequence | relative binding free energy [kcal/mol] |
| --- | --- |
| TCTGCCACGTGGGGGT | -0.24 |
| TAAGGCACGTGGGGTA | -0.24 |
| AGATTCACGTGGGAGA | 0.24 |
| AGTTACACGTGTGGGT | 0.14 |
| AAGGGCACGTGGATTT | -0.09 |
| ATTATCACGTGGTGCG | 0.01 |
| CTGTTCACGTGTGTTG | 0.34 |
| TAGCTCACGTGTTATG | 0.13 |
| GGTCGCACGTGATTTT | 0.17 |
| AAAGGCACGTGGTTTT | -0.24 |
| TGGCTCACGTGAAGTT | 0.51 |
| GTTCACACGTGCGTGG | -0.05 |
| CTGTGCACGTGTTATG | -0.07 |
| AATTTCACGTGTGTTT | 0.36 |
| GTTCACACGTGAGGTT | 0.39 |
| GGTGACACGTGGATGG | 0.06 |
| CGGCGCACGTGGTGCG | -0.11 |
| GTGTTCACGTGACGGG | 0.33 |
| GAGGGCACGTGGCGAG | -0.24 |
| TGGAGCACGTGTACAT | 0.03 |
| TGTTCCACGTGATTAT | 0.09 |
| GTGAACACGTGGAGGT | 0.08 |
| AGAGGCACGTGAGGTG | 0.17 |
